Whole data set: some 33,000 sequences, median “E-score (-0.5 to 0.5)” near -0.035, cut for the highest 2% near 0.35. The list shows a part of the results.
These sequences were tested against T1, Pdr3 (UniProt P33200) (assay: PBM E-score (8-mer binding enrichment) (E-score (-0.5 to 0.5)); higher = stronger / more preferred TF binding; most listed sequences are background and not binding sites). Details: protein concentration: 200 nM; construct: GST-full length.
T1 sequence: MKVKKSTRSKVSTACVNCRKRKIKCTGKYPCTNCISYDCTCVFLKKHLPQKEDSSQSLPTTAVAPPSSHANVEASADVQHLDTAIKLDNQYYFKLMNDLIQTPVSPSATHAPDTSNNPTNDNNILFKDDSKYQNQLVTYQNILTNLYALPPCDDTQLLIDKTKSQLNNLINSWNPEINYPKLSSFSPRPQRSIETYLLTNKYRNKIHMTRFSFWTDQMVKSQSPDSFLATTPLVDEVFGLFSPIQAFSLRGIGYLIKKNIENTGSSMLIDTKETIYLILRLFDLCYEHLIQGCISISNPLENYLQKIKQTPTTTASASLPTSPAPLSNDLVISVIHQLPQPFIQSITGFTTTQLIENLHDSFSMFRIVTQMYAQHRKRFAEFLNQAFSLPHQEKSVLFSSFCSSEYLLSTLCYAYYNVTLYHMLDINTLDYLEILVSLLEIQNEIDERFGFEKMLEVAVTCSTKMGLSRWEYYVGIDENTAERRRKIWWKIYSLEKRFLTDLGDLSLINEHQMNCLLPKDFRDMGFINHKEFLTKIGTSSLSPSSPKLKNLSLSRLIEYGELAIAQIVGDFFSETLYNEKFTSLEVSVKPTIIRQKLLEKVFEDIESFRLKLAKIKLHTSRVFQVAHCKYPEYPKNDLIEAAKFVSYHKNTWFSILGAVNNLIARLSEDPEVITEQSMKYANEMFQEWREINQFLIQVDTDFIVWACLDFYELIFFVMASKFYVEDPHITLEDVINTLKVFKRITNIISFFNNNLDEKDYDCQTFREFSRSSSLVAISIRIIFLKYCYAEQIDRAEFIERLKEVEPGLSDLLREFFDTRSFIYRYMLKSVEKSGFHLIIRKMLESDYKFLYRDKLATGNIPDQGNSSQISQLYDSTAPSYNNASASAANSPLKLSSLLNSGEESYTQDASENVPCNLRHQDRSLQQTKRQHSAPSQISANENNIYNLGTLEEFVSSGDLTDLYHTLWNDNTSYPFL
In short: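 The E-score, a modified Wilcoxon-Mann-Whitney statistic, was computed by the Universal PBM Analysis Suite for every ungapped eight-base word pooled with its reverse complement. Scans behind it were normalised with masliner after bound GST-tagged yeast transcription factors were detected with fluorescent anti-GST. The proteins, at about 100-200 nM, had been applied to universal all-10-mer Agilent arrays made double-stranded by primer extension.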

Sequence	PBM E-score
ATGGTAAA	0.0447
AAGATCGT	-0.137
CTTTTTAC	-0.0559
CACTGCAC	-0.154
AGTTCTTG	-0.0977
TGCACAAA	-0.235
AGCCATAC	-0.325
CCCGGATC	0.419
CAGGGTCG	0.131
CTCTTTTA	-0.383
AAAGATCC	0.0608
AGGTTCCG	0.478
GATGTTGC	0.11
ACAGACTC	-0.159
GCTGCCAA	-0.0664
CACCCACG	0.209
ATATGGCA	-0.172
ACCAGTTA	-0.0626
CGCTGTCA	-0.0586
AATCCTCG	-0.119
AGTGTCTC	-0.136
CCGTTTAA	0.147
GTGTGTGA	-0.0291
GAATGGTA	-0.103
ATGGCAAC	0.0596

Sequence	PBM E-score
AAATCGTA	-0.103
GTTCTTCA	-0.074
CACACAGG	0.0218
ACTCGTCA	-0.167
CTTAGGGA	-0.353
AAGTTAGG	-0.117
AGTGTCAG	-0.135
ACTCCATC	0.252
GGACCCTA	-0.03
GCTGCGGA	0.272
GTGTATCA	0.00324
CAGCACAC	-0.275
ACAACAAG	-0.138
ACGTGCAT	-0.256
CTAGCACA	-0.228
ACTTCCCC	-0.132
TTCGACAA	-0.036
CCCCAACG	0.0159
CGAGTAAC	0.0595
CACAGCGC	0.161
GTCCTAAC	-0.255
CAATCGTA	-0.0642
AAGGGGGG	-0.396
ACTAGGGC	-0.218
CGCCGCCG	0.294

Sequence	PBM E-score
ATCCAAAG	-0.0915
CAGTACTG	0.0824
ATGGATGC	-0.132
ATTAACCG	0.313
GACTCTAC	-0.224
TACTGGAA	-0.046
CGGTCTAG	-0.00415
GGAGGGCA	-0.158
AAAATACG	-0.0516
CAATTTCA	-0.14
GTGTTGGA	-0.0442
CACCTTAA	-0.092
CGGGTCAA	0.387
CATCGTAC	-0.112
GTCGACAC	-0.00728
TACGTAAA	-0.436
AATTATGG	-0.00297
CCAGCCCC	-0.0573
TGGTCAAA	-0.0459
TGTGAACA	-0.0898
AACTAAGG	0.0237
GGCTTTGA	0.0647
CGACCCTC	-0.186
AAGGCGTG	-0.267
GACGCCCA	0.05

Sequence	PBM E-score
AGGCGAAC	-0.114
GAGAAGCA	-0.15
CTAATAAA	-0.0684
AGGCCAAT	-0.0324
CCGTTAGG	0.0121
AGCTAACA	-0.178
CAATAGAC	0.0262
ATCCCTAC	0.0333
GAGAGGGA	-0.279
ACATCCCA	-0.0829
CAAGTCCG	0.221
AAATATGT	0.24
AAAATACT	0.175
AGGTCTAA	-0.0213
ACATGCCC	-0.0672
CCCGTAGA	-0.144
ACCACGGT	-0.263
ACAATCGC	0.181
GTCAGCGA	-0.165
AATCAGGG	-0.24
ACGGGACG	0.295
ATGAATTG	0.0561
GCACCCCA	0.0981
ATATTCAG	-0.00991
CCCACCAG	-0.0926

Sequence	PBM E-score
ATGAGTCA	-0.213
GTTGATGA	0.0587
TATATAAA	-0.0354
ACCTCACC	-0.0307
CATTCTCA	0.0162
ACTCATGA	-0.108
CACGGCCG	0.314
GATTTTGA	0.117
AATTTATG	0.0637
AGGACGAC	-0.205
CATACGCA	-0.0277
TATAATAA	0.0926
AGACCTTA	-0.0346
AGATTACG	0.0218
TTTCCAAA	-0.165
CCAATGGG	-0.151
CACGTTCC	0.25
ACCGGTTC	0.175
CATCTAGC	-0.128
ATGAAGCG	-0.0578
CGCGACGA	0.0966
CAAGCTAG	-0.291
CAAACACA	-0.149
AGGTCGCC	0.117
AGAGTAGA	-0.0981

Sequence	PBM E-score
CGAAAATA	0.081
GAGAGTTA	-0.216
ATCTCTTC	0.0745
ACTCGCGC	0.0916
AGATCAGC	0.226
CCATTACC	0.0713
AAACTTAT	0.155
AGGCAAGA	-0.176
TGGGTCAA	-0.108
CTTTATTA	-0.194
CATCCGCA	0.237
CGACGACG	0.0887
GCGAGAAC	0.0877
TACGGCCA	-0.0624
GCATCCGA	0.213
AGTCGACC	0.0168
ATGGGCAG	-0.0782
CCCGAAGA	0.0276
CCAAACGA	-0.0534
GCCTAGGA	-0.2
CAATTGAG	0.189
CTGCTTGC	-0.0808
ACACCCCG	0.156
ACAGCACA	-0.0356
GCCCCGCA	0.0442

Sequence	PBM E-score
CGGCTTTA	0.13
ACTTAGCT	-0.244
ATCTGTAA	0.0238
AACTAACG	0.0937
ACCTGTCT	-0.123
ACGGAGCT	0.244
ATTTTCTG	-0.0778
AAGCCCCA	-0.179
ATAACTGC	-0.193
AGCAAGTC	-0.23
ATCTATCG	-0.133
GGACTAAA	0.0198
CGATCGGC	0.111
AAAGTCGC	0.0957
AATCAGAG	-0.0237
CGGACTGA	0.222
GTAACACA	0.0441
AACAGTAG	-0.0739
CGCCCCTA	0.107
CAAGAGAA	0.103
ACGACGTC	-0.0975
CGTACTGA	-0.0142

From the supplement of paper PMC3334620
